Source: the supplement of paper PMC6531468
Some of the results follow. Values come from read counts of a selection and are noisy. Each score is taken over the longer molecules that contain the sequence shown.

Assays:
Test in all cases: 6-mer SELEX enrichment z-score vs GST control; IMP3 is the RNA-binding protein IGF2BP3; higher = more enriched by binding
IMP3 KH1-4 = details: construct: KH1-4 (164-579); SELEX round: R4
Description: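 SELEX-seq with GST-tagged IMP3 KH1-4 (Pro164-Lys579) and an N40 RNA pool, round 4. 6-mer z-score of sequence-tag enrichment normalised to the corresponding GST SELEX round; RNA k-mers written as DNA (T for U).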

IMP3 RRM1-2 = details: construct: RRM1-2 (1-163); SELEX round: R2
Chain of IMP3 RRM1-2 (chain, as listed by the source): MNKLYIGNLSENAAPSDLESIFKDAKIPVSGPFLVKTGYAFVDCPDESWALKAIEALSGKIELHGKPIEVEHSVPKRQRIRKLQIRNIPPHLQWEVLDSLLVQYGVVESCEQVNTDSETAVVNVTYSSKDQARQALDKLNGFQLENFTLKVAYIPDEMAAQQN
Description: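 SELEX-seq with GST-tagged IMP3 RRM1-2 (Met1-Asn163) and an N40 RNA pool, round 2. 6-mer enrichment z-score normalised to GST SELEX. RNA written as DNA (T = U).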

IMP3 full-length = IMP3 full-length (UniProt O00425); details: construct: FL IMP3 (1-579); SELEX round: R4
Chain of UniProt O00425 (O00425 whole entry): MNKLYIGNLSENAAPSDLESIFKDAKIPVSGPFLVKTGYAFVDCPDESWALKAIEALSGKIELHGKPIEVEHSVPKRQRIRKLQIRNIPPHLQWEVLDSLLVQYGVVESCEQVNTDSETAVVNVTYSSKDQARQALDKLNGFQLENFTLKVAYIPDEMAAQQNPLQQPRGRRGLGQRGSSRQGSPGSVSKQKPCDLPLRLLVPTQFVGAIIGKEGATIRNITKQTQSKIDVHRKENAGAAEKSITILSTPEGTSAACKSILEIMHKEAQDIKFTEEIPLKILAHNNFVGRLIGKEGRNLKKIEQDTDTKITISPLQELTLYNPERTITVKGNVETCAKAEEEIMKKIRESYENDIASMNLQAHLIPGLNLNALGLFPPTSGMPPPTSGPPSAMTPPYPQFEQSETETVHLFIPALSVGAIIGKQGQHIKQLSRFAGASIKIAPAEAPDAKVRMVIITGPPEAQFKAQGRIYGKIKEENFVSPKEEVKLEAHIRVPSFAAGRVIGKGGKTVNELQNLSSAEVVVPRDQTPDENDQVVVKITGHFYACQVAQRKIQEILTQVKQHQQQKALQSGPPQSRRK
Description: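 SELEX-seq with GST-tagged full-length IMP3 and an N40 RNA pool, round 4. Each 6-mer is scored as an enrichment z-score of sequence tags containing it, normalised to the matching GST SELEX round. RNA written as DNA (T = U).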

IMP3 KH1-2 = details: construct: KH1-2 (164-376); SELEX round: R4
Chain of IMP3 KH1-2 (chain, as listed by the source): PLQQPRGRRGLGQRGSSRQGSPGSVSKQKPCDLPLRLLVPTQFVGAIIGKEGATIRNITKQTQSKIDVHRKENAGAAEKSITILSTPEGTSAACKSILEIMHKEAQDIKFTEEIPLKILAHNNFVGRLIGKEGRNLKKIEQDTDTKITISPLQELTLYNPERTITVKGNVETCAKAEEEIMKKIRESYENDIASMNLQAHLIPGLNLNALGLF
Description: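 SELEX-seq with GST-tagged IMP3 KH1-2 (Pro164-Phe376) and an N40 RNA pool, round 4 (stringent 300/600 mM KCl washes). 6-mer z-score of sequence-tag enrichment normalised to the corresponding GST SELEX round; RNA k-mers written as DNA (T for U).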

IMP3 KH3-4 = details: construct: KH3-4 (377-579); SELEX round: R4
Chain of IMP3 KH3-4 (chain, as listed by the source): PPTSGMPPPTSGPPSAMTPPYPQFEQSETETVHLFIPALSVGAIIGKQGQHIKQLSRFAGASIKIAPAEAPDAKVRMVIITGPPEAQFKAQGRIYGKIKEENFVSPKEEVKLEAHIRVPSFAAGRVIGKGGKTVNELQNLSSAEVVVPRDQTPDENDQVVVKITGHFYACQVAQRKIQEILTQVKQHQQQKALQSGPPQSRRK
Description: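 SELEX-seq with GST-tagged IMP3 KH3-4 (Pro377-Lys579) and an N40 RNA pool, round 4. 6-mer z-score of sequence-tag enrichment normalised to the corresponding GST SELEX round; RNA k-mers written as DNA (T for U).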

Chain of IMP3 KH1-4 (chain, as listed by the source): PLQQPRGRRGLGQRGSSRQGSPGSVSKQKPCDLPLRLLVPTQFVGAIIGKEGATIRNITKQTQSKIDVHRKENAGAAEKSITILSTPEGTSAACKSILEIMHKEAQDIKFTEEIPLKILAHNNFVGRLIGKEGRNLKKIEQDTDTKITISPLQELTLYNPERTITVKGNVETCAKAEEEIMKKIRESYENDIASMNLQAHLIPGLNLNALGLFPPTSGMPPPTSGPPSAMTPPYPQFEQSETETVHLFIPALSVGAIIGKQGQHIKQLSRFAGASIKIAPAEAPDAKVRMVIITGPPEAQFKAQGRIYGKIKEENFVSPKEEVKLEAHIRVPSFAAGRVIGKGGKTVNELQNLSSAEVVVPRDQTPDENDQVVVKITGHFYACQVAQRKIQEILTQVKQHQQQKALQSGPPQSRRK

| Sequence | 6-mer SELEX enrichment z-score (IMP3 KH1-4) | 6-mer SELEX enrichment z-score (IMP3 RRM1-2) | 6-mer SELEX enrichment z-score (IMP3 full-length) | 6-mer SELEX enrichment z-score (IMP3 KH1-2) | 6-mer SELEX enrichment z-score (IMP3 KH3-4) |
| --- | --- | --- | --- | --- | --- |
| GATTGC | 0.124 | -0.323 | -0.301 | 0.034 | 0.183 |
| ATTCTA | 0.878 | 0.252 | 0.168 | 0.847 | 0.966 |
| GCGCCG | -0.374 | -0.096 | 0.691 | -0.165 | -0.416 |
| TCGTAA | -0.384 | -0.303 | -0.416 | -0.422 | -0.247 |
| CTTAGC | -0.459 | 0.106 | -0.313 | -0.368 | -0.394 |
| ATTGAT | 1.21 | -0.125 | 0.037 | 0.754 | 1.53 |
| TCGGCG | 0.264 | 0.466 | 1.31 | 0.277 | 0.442 |
| GGCTGT | 0.26 | 0.328 | 0.439 | 0.246 | 0.443 |
| GATAAT | 1.24 | -0.603 | -0.077 | 0.983 | 1.96 |
| CTTTTA | 1.03 | 0.159 | 0.162 | 1.01 | 1.29 |
| ACACAG | 1.55 | 3.17 | 3.18 | 1.85 | 0.958 |
| GTAAAT | 0.302 | -0.646 | -0.431 | 0.078 | 0.714 |
| TGAATT | 1.21 | -0.45 | -0.094 | 0.828 | 1.63 |
| ACAACG | -0.281 | -0.268 | 0.199 | -0.353 | -0.522 |
| AACCTT | -0.592 | -0.612 | -1.26 | -0.562 | -0.802 |
| TTTAAC | 1.01 | -0.269 | -0.298 | 1.1 | 1.57 |
| CAGCTT | -0.121 | 0.301 | 0.208 | -0.01 | -0.119 |
| GAACGA | -1.45 | -2 | -1.59 | -1.43 | -1.2 |
| GGCCTC | -0.319 | 0.231 | 0.487 | -0.249 | -0.381 |
| GCTATA | 0.77 | -0.035 | 0.154 | 0.724 | 1.01 |
| ATGTGA | 1.12 | -0.63 | -0.267 | 0.574 | 1.17 |
| CCTATT | 0.399 | 0.154 | -0.187 | 0.342 | 0.261 |

| Sequence | 6-mer SELEX enrichment z-score (IMP3 KH1-4) | 6-mer SELEX enrichment z-score (IMP3 RRM1-2) | 6-mer SELEX enrichment z-score (IMP3 full-length) | 6-mer SELEX enrichment z-score (IMP3 KH1-2) | 6-mer SELEX enrichment z-score (IMP3 KH3-4) |
| --- | --- | --- | --- | --- | --- |
| TGGGAG | 0.606 | -0.056 | 0.404 | 0.684 | 0.742 |
| GTCGCT | 0.192 | 0.398 | 0.326 | 0.197 | 0.207 |
| TACTCT | -0.359 | 0.21 | -0.316 | -0.228 | -0.271 |
| GTTAAG | -0.238 | -0.064 | -0.372 | -0.241 | 0.018 |
| TGCCAG | 0.003 | -0.373 | 0.008 | -0.046 | -0.184 |
| GAGGGA | 0.892 | -0.53 | 0.12 | 0.941 | 0.915 |
| AGTCGC | 1.23 | 0.222 | 0.78 | 0.881 | 0.56 |
| GGGTCG | 0.415 | 0.346 | 0.681 | 0.563 | 0.484 |
| TGAGAG | -0.074 | -0.524 | -0.384 | -0.144 | 0.102 |
| GATCCA | -0.604 | -0.282 | -0.538 | -0.587 | -0.787 |
| CTCCGT | -0.156 | 0.035 | 0.032 | -0.063 | -0.35 |
| CTGTTG | -0.097 | 0.144 | -0.149 | -0.071 | -0.113 |
| TAGGAA | 0.185 | -0.09 | -0.336 | -0.036 | 0.446 |
| CGATTG | -0.493 | -0.377 | -0.594 | -0.495 | -0.4 |
| GGCCGT | 0.017 | -0.001 | 0.631 | 0.143 | 0.178 |
| GGAAGA | 0.956 | -1.08 | -0.189 | 0.707 | 0.922 |
| ACGTCA | -0.86 | 0.174 | 0.15 | -0.93 | -0.92 |
| CGTTCG | -0.541 | 0.12 | -0.041 | -0.516 | -0.476 |
| TACATC | 0.889 | 1.01 | 1.32 | 0.937 | 0.338 |
| GATTTG | 0.529 | -0.101 | -0.139 | 0.304 | 0.72 |
| CCCAAA | -3.46 | -2.12 | -3.31 | -3.31 | -3.95 |
| CAACCA | 0.109 | 2.94 | 0.785 | 0.375 | -0.753 |

| Sequence | 6-mer SELEX enrichment z-score (IMP3 KH1-4) | 6-mer SELEX enrichment z-score (IMP3 RRM1-2) | 6-mer SELEX enrichment z-score (IMP3 full-length) | 6-mer SELEX enrichment z-score (IMP3 KH1-2) | 6-mer SELEX enrichment z-score (IMP3 KH3-4) |
| --- | --- | --- | --- | --- | --- |
| TAAGGG | 0.308 | 0.005 | -0.036 | 0.339 | 0.662 |
| TCGAAG | -1.1 | -0.453 | -0.701 | -1.01 | -0.841 |
| AGAGCG | -4.7 | -0.59 | -2.33 | -4.35 | -4.19 |
| TGAGCT | -1.15 | 0.059 | -0.635 | -1.03 | -0.827 |
| AGGATT | 0.862 | -0.143 | 0.123 | 0.674 | 1.12 |
| GTGTTA | -0.193 | 0.129 | -0.256 | -0.231 | -0.006 |
| TTACGG | 0.665 | -0.001 | 0.291 | 0.367 | 0.658 |
| CCCTGC | -1.05 | -0.339 | -0.751 | -0.958 | -1.41 |
| CTAAAG | -0.621 | -0.74 | -0.892 | -0.667 | -0.36 |
| GATTGG | 0.124 | 0.118 | -0.042 | 0.093 | 0.207 |
| AAACAG | -0.29 | -0.135 | 0.022 | 0.03 | 0.15 |
| AGTGTA | -2 | -0.275 | -1.64 | -1.93 | -1.75 |
| AAGCGC | -1.6 | -0.52 | -0.939 | -1.56 | -1.45 |
| AACGTG | -1.08 | -1.06 | -1.16 | -1.26 | -1.02 |
| TAGTCT | -0.069 | 0.385 | 0.109 | -0.025 | 0.072 |
| GATGCA | 0.567 | -0.244 | 0.322 | 0.357 | 0.463 |
| ATGTCC | 0.554 | -0.318 | -0.071 | 0.11 | -0.021 |
| AGCCAC | -0.108 | 0.132 | 0.321 | -0.172 | -0.687 |
| TCTGTA | 0.287 | 0.174 | 0.161 | 0.306 | 0.249 |
| TCAACA | 0.535 | 2.74 | 2.2 | 0.755 | 0.167 |
| TAGCGG | 0.326 | 0.099 | 0.416 | 0.235 | 0.637 |
